Reference: US9803013B2, “Biological materials and uses thereof” (BioInvent International AB, priority 2005, dated 2017)

Experiments:
[1] = tested on: MC/CAR; test: IgG binding to multiple myeloma cell line, flow cytometry MFI; set-up: species or system human; settings: control FITC-8 IgG MFI subtracted
Experimental: (§1) • ^aApoptosis Induction; determined by percentage of viable cells after 6 hour incubation with any of the human antibodies, crosslinked with Goat anti-Human (gamma) Fc specific antibody; −, viability not affected; +, 95-80%; ++, 79-60%; +++, 59-40% viable cells compared to control (human FITC-8 IgG1). […] The cell line dependent MFI value of control human FITC-8 IgG antibody was subtracted from the MFI of each human antibody.

[2] = tested on: BJAB; test: Apoptosis induction by cross-linked IgG (Annexin V/PI); type: cell-based, human; settings: viable cells after 6 hour incubation, crosslinked, compared to control FITC-8 IgG1
Experimental: (§2) 2×10^5 B lymphoma cells (Raji or Ramos) or Jurkat T cells were incubated with serially diluted and detoxified scFv's in culture medium for 1 h on ice.
(§3) When whole IgGs were used for apoptosis induction, cross-linking reagent was replaced by goat Fab′2 anti-human Fc γ antibody (Jackson ImmunoResearch) with minimal cross-reactivity with non-IgG antibody isotypes (to avoid unspecific cross-linking of endogenous B lymphoma associated surface immunoglobulins) and incubated, as described above, for 6 h.
(§4) Apoptotic cells were, unless otherwise stated, detected by combined staining with Annexin V Alexa Fluor 488 (AV) and Propidium Iodide (PI) (both from Molecular Probes, Invitrogen) and subsequent flow-cytometric analysis, Cells were defined as viable (AV−/PI−), early apoptotic (AV+/PI−) or late apoptotic/necrotic (AV+/PI+). AV and PI signals were recorded in the FL1 and FL2 or FL3 channels (as indicated in the text), respectively, using a FACSCalibur instrument (BD Biosciences).
as §1

[3] = tested on: CL-01; test: as above; type: cell-based, human; settings: viable cells after 6 hour incubation, crosslinked, compared to control FITC-8 IgG1
Experimental: as §2, §3, §4, §1

[4] = tested on: DOHH-2; test: as above; type: cell-based, human; settings: viable cells after 6 hour incubation, crosslinked, compared to control FITC-8 IgG1
Experimental: as §2, §3, §4, §1

[5] = tested on: Granta 519; test: as above; type: cell-based, human; settings: viable cells after 6 hour incubation, crosslinked, compared to control FITC-8 IgG1
Experimental: as §2, §3, §4, §1

[6] = tested on: JVM-2; test: as above; type: cell-based, human; settings: viable cells after 6 hour incubation, crosslinked, compared to control FITC-8 IgG1
Experimental: as §2, §3, §4, §1

[7] = tested on: Jeko-1; test: as above; type: cell-based, human; settings: viable cells after 6 hour incubation, crosslinked, compared to control FITC-8 IgG1
Experimental: as §2, §3, §4, §1

[8] = tested on: MC/CAR; test: as above; type: cell-based, human; settings: viable cells after 6 hour incubation, crosslinked, compared to control FITC-8 IgG1
Experimental: as §2, §3, §4, §1

[9] = tested on: NCEB-1; test: as above; type: cell-based, human; settings: viable cells after 6 hour incubation, crosslinked, compared to control FITC-8 IgG1
Experimental: as §2, §3, §4, §1

[10] = tested on: RL; test: as above; type: cell-based, human; settings: viable cells after 6 hour incubation, crosslinked, compared to control FITC-8 IgG1
Experimental: as §2, §3, §4, §1

[11] = tested on: Rec-1; test: as above; type: cell-based, human; settings: viable cells after 6 hour incubation, crosslinked, compared to control FITC-8 IgG1
Experimental: as §2, §3, §4, §1

[12] = tested on: Reh/KM-3; test: as above; type: cell-based, human; settings: viable cells after 6 hour incubation, crosslinked, compared to control FITC-8 IgG1
Experimental: as §2, §3, §4, §1

[13] = tested on: SC-1; test: as above; type: cell-based, human; settings: viable cells after 6 hour incubation, crosslinked, compared to control FITC-8 IgG1
Experimental: as §2, §3, §4, §1

[14] = tested on: SP-53; test: as above; type: cell-based, human; settings: viable cells after 6 hour incubation, crosslinked, compared to control FITC-8 IgG1
Experimental: as §2, §3, §4, §1

[15] = tested on: WSU-NHL; test: as above; type: cell-based, human; settings: viable cells after 6 hour incubation, crosslinked, compared to control FITC-8 IgG1
Experimental: as §2, §3, §4, §1

[16] = tested on: PC-3; test: IgG binding to carcinoma cell line, flow cytometry MFI; set-up: species or system human; settings: PC-3 prostate carcinoma cells
Text: (§5) The antigen distribution of human antibody targeted antigens, mainly for B11, on different carcinoma cell lines was investigated. Cells (MCF-7 and MDA MB 435S breast carcinoma, JAR and JEG-3 chorio-carcinoma, A549 lung carcinoma, TCC-SUP urinary bladder carcinoma, MDA MB 435 melanoma, HPAC, PANC-1 and BxPC-3 pancreatic carcinoma, PC-3 and DU145 prostate carcinoma, LS174 T, CaCo2, and Lovo colorectal carcinoma, and THP-1 monocytic leukaemia cells), were washed in PBS, and resuspended at 4×10^6 cells/ml in Complete Medium (200,000 cells/50 […] sample). […] Cells were incubated with either of the antibodies for 1 hour on ice, washed by resuspension in PBS/BSA 0.5%, centrifuged at 1200 rpm for 5 min, and complete aspiration of the supernatants was undertaken. Cells were incubated with PE-conjugated Goat F(ab′)2 anti-Human IgG (Caltag Laboratories, Cat no: H10104), diluted 1/50 in PBS/BSA 0.5%, for 30 min, on ice. Following resuspension of in 300 μl PBS/BSA 0.5%, cells were analysed for IgG binding using a FACScan instrument.

[17] = tested on: carcinoma cell lines initially tested; test: IgG binding to tumour cell lines, flow cytometry; set-up: species or system human; settings: all carcinoma cell lines initially tested
Text: FIG. 6—Binding of B1, B11, C11 IgG, to tumour cell lines of different origin. The antigen distribution of antigens targeted by the B1, B11, and C11 antibodies on different carcinoma cell lines was investigated by flow-cytometry.
as §5

[18] = tested on: PC-3 cells; test: Apoptosis induction in carcinoma cells (cross-linked IgG, 16-24 hours, Annexin V/PI); type: cell-based, human; settings: PC-3, cross-linked IgG
Experimental: The prostate carcinoma cell line PC-3 was grown in Complete Growth Medium (RPMI 1640, supplemented with 10% FCS, 10 mM HEPES, and 2 mM L-Glutamine) to 80% confluency in a 6 well plate. The prostate carcinoma cell line DU145 was grown in MEM with Earl's salts, supplemented with 10% FCS, 1 mM sodium pyruvate, and 1 mM non-essential amino acids and the derivate of a melanoma cell line MDA MB 435 was grown in DMEM supplemented with 10% FCS.
For apoptosis assays cells were washed in PBS and serially diluted B11 IgG1 (or B1 IgG1, Trastuzumab or negative antibody control for controls) was added to individual wells and binding was allowed during a 1-2 h incubation at 4° C. The cells were washed and Complete Growth Medium was added, containing cross-linking antibody, Fab′2 Goat anti-Human Fab′2, at 10 μg/ml. Cells were incubated in a humidified atmosphere, with 5% CO2 at 37° C., for 16-24 hours. […] The percentage apoptotic cells was determined by the formula: % apoptotic cells=100−% AF488−AV/PI−/−.
Cells were seeded in 6 well plates with Complete Growth Medium three days before the onset of the experiment. […] Cells were washed in ice-cold PBS, subjected to Annexin V/propidium iodide staining, and analysed for viability/apoptosis as described in example 5 above.

B1: B1: fully human IgG1 antibody specific for HLA-DR/DP; VH and VL sequences of FIG. 9 (SEQ ID NOs. 2 and 4) (antibody, listed as Homo sapiens, V domains shown)
VH: [about 100 residues left out here]DGLLPLDYWGQGTLVTVSS
VL: QSVLTQPPSASGTPGQRVTISCSGGSSNIGGNAVNWYQQLPGTAPKLLIYENNKRPSGVPDRFSGSKSGTSASLAISGLRSEDEADYYCSSYAVSNNFEVLFGGGTKLTVLG
[1]
  MFI: 290
[2]
  Apoptosis Induction: + (95-80%)
[3]
  Apoptosis Induction: +++ (59-40% viable cells compared to control (human FITC-8 IgG1))
[4]
  Apoptosis Induction: −
[5]
  Apoptosis Induction: ++ (79-60%)
[6]
  Apoptosis Induction: + (95-80%)
[7]
  Apoptosis Induction: +++ (59-40% viable cells compared to control (human FITC-8 IgG1))
[8]
  Apoptosis Induction: ++ (79-60%)
[9]
  Apoptosis Induction: + (95-80%)
[10]
  Apoptosis Induction: −
[11]
  Apoptosis Induction: −
[12]
  Apoptosis Induction: +++ (59-40% viable cells compared to control (human FITC-8 IgG1))
[13]
  Apoptosis Induction: + (95-80%)
[14]
  Apoptosis Induction: ++ (79-60%)
[15]
  Apoptosis Induction: + (95-80%)
[16]
  binding: did not bind
[17]
  binding: lack of binding
[18]
  Apoptosis Induction: did not induce apoptosis
